# Data as given in PubChem BioAssay AID485294 (National Center for Advancing Translational Sciences (NCATS), 2010).
# Out of some 370,000 compounds screened, about 150 (0.041%) were called active. Inconclusive results, whose numbers are uncertain, are shown with a selection of clear calls. Calls follow the shape of the dose curve; as a rule, active = well fitted inhibition curve with a large enough effect; inconclusive = small, poorly fitted or top-dose-only effect; inactive = flat fitted curve, though single readings scatter. No potency is given beside an inconclusive call; the fits are too rough.
# Biological target: Beta-lactamase (Escherichia coli (strain K12)) (UniProt P00811)
# UniProt P00811, sequence (P00811 whole entry, looked up): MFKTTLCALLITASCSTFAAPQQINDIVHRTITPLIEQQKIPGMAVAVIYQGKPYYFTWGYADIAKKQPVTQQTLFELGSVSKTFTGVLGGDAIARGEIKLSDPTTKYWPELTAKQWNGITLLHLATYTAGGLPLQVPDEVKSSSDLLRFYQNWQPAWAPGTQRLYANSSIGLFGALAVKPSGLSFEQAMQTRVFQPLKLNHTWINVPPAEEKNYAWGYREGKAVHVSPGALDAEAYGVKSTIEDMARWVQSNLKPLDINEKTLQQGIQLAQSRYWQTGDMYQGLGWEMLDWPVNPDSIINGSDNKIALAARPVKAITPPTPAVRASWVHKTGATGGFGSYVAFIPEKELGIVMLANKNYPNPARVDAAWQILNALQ
# Assay: qHTS Inhibitors of AmpC Beta-Lactamase (assay with detergent); also: nearly all actives have a fitted effect of over 25% in size;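 as to activity change, negative = inhibition: 0% = no-compound wells and -100% = no-enzyme wells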
# Conditions: AmpC hydrolysis of nitrocefin, absorbance 480 nm, 0.01% Triton; activity change, negative = inhibition: at 114 µM (top of the series)
# Outline: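 20 mM phosphate pH 7.0 + 0.01% (detergent screen) or 0.0001% Triton X-100; 5.3 nM AmpC reagent; cpd preinc 15 min RT; nitrocefin (800 uM stock) to start; A480 q20 s × 4 min; Activity was normalised to no-enzyme and no-compound control wells.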
# Potency is read from the fitted curve at half-maximal effect; tags tell the direction and shape of the fitted curve.
Structure (SMILES),Potency,"activity change, negative = inhibition"
O=C(O)c1cc(O)ccc1NC(=O)C1CCCO1 (stereo unspecified),"inconclusive [inhibitor, full curve, poor fit]",
O=C(O)/C=C/c1cn(Cc2ccccc2)nc1-c1ccccc1,"inconclusive [inhibitor, single point]",
Cn1c(=O)c2c(-c3ccccc3)n(N3CCOCC3)cc2n(C)c1=O,"inconclusive [inhibitor, full curve]",
O=C1CC(N2CCN(Cc3ccccc3)CC2)C(=O)N1c1ccccc1 (stereo unspecified),"inconclusive [inhibitor, full curve, poor fit]",
C/C=C\C=C/C(=O)Nc1cccc(C2=NOC3(C2)C[C@H](C(N)=O)N(C(=O)CC)C3)c1 (stereo partly specified),,inactive: 0.645%
O=C(NCc1ccoc1)c1ccc(NC(=O)c2ccccc2Cl)cc1,,inactive: -10.6%
CCOC(=O)c1c(-c2ccccc2)csc1NC(=O)COc1ccc2c(C)cc(=O)oc2c1,"inconclusive [inhibitor, partial curve]",
CC(C)c1nc2n[nH]c(N)c2c2c1CCC2,"inconclusive [inhibitor, full curve]",
CC(=O)Nc1cc[n+](C(C)C(=O)c2ccccc2)cc1 (stereo unspecified),"inconclusive [inhibitor, full curve, poor fit]",
Cc1cc(NC(=O)COC(=O)c2oc3c(Cl)cccc3c2C)no1,"inconclusive [inhibitor, full curve, poor fit]",
Cc1cc(C)nc(SCC(=O)c2ccc(Cl)cc2)n1,"inconclusive [inhibitor, full curve, poor fit]",
S=C(Nc1cc(Cl)ccc1Oc1ccccc1)N1CCN(c2ccccn2)CC1,,inactive: -13.6%
Cc1cc(C)c2c(N=CN(C)C)c(C(=O)N3CCN(c4ncccn4)CC3)sc2n1,"inconclusive [inhibitor, full curve, poor fit]",
Cc1ccc(S(=O)(=O)Nc2cccc(S(=O)(=O)N3CCCC3)c2)cc1C,"inconclusive [inhibitor, full curve]",
Cc1cc(NS(C)(=O)=O)c(=O)n(Cc2cccc(F)c2)c1,"inconclusive [inhibitor, full curve, poor fit]",
Cc1cccnc1CCNCc1c(C(=O)N2C[C@@H](C)O[C@@H](C)C2)nc2ccc(Cl)cn12,,inactive: 0.238%
COc1ccc(CCN(Cc2cccs2)S(=O)(=O)c2ccc(-n3cnnn3)cc2)cc1OC,"inconclusive [inhibitor, full curve, poor fit]",
O=C(Nc1ccccc1-c1ccccc1)c1ccc(Cl)c([N+](=O)[O-])c1,,inactive: 4.33%
COCC(=O)N1CCCC(N(C)CCc2ccc(OC)c(OC)c2)C1 (stereo unspecified),,inactive: -3.66%
CC(=O)N1CCCc2ccc(NS(=O)(=O)c3ccccc3)cc21,"inconclusive [inhibitor, full curve, poor fit]",
CC(C)N(Cc1nc(-c2ccc(Cl)cc2)no1)C(=O)CCCN1C(=O)c2ccccc2C1=O,"inconclusive [inhibitor, full curve, poor fit]",
CCCCc1nc(C(N)=O)c2[nH]c(=O)n(-c3ccccc3F)c2n1,"inconclusive [inhibitor, full curve]",

Structure (SMILES),Potency,"activity change, negative = inhibition"
COc1cccc(/C=N/NC(=O)c2[nH]nc3c2CCc2ccccc2-3)c1,,inactive: 5.3%
Cc1ccc(Cn2nnc3c(=O)[nH]c(C(=O)NCc4ccco4)nc32)cc1,"inconclusive [inhibitor, partial curve, poor fit]",
COc1ccccc1-n1nnnc1SC(C)C(=O)NC1CCCC1 (stereo unspecified),"inconclusive [inhibitor, full curve, poor fit]",
CCN1CCN(C(=O)c2ccc(-c3nc4ccccc4s3)s2)CC1,,inactive: -1.28%
Cc1ccc(C(=O)NCCc2csc(C)n2)cc1,"inconclusive [inhibitor, partial curve]",
CCOC(=O)c1ccc(Oc2nc(N(C)C)nc(N(C)C)n2)cc1,"inconclusive [inhibitor, single point]",
COC(=O)c1sc(NC(=O)CSc2nnnn2-c2ccc(C)cc2C)nc1C,"inconclusive [inhibitor, partial curve, poor fit]",
CCOC(=O)c1ccc(NC(=O)Nc2ncc(Cl)cc2Cl)cc1,,inactive: -8.52%
O=C(CCS(=O)(=O)c1ccccc1)Nc1ccc(Cl)cn1,,inactive: -1.09%
COc1ccc(Oc2nnc(-c3ccc(C)cc3)c3ccccc23)cc1,"inconclusive [inhibitor, single point]",
CC(=O)c1cc(C#N)c(SCc2ccncc2)nc1C,"inconclusive [inhibitor, full curve]",
COCc1cc(C)nc2sc3c(=O)n(Cc4ccco4)nnc3c12,"inconclusive [inhibitor, full curve, poor fit]",
O=C(NCCc1ccccc1F)/C(=C/c1cccnc1)NC(=O)c1ccccc1,"inconclusive [inhibitor, single point]",
COc1ccc(S(=O)(=O)NC(CC(=O)O)c2ccco2)cc1 (stereo unspecified),"inconclusive [inhibitor, partial curve, poor fit]",
Cc1ccc(C(=O)Nc2ccc3c(c2)OCCO3)o1,"inconclusive [inhibitor, full curve, poor fit]",
Cc1noc(C)c1Cc1c(Cl)cccc1Cl,"inconclusive [inhibitor, single point]",
Clc1ccc(NNc2ccnc3cc(Cl)ccc23)cc1,"inconclusive [inhibitor, partial curve]",
O=C1CC(NS(=O)(=O)c2ccc([N+](=O)[O-])cc2)CN1c1ccc2c(c1)OCCO2 (stereo unspecified),"inconclusive [inhibitor, full curve]",
COc1ccc(OC)c(S(=O)(=O)NCCCc2ccccc2)c1,"inconclusive [inhibitor, full curve, poor fit]",
COc1cccc(C(=O)NC2C(=O)N3C(C(=O)O)=C(COC(C)=O)CSC23)c1 (stereo unspecified),"inconclusive [inhibitor, single point]",
Cc1ccc(C)c(N(C)C(=O)c2cc3c(=O)[nH]c4ccc(C)cc4c3s2)c1,,inactive: 5.38%
Cn1c(=O)oc2cc(S(=O)(=O)N3CCCC(C(=O)N4CCN(c5ccccc5F)CC4)C3)ccc21 (stereo unspecified),,inactive: 2.61%

Structure (SMILES),Potency,"activity change, negative = inhibition"
NC(=O)[C@@H]1CCCNc2c(F)cc([N+](=O)[O-])cc2C(=O)N[C@@H](CO)C(=O)N[C@@H](Cc2ccc(O)cc2)C(=O)N1,"inconclusive [inhibitor, full curve, poor fit]",
Cc1cc(C)nc(N/C(=N\S(=O)(=O)Cc2ccccc2)Nc2ccc(F)c(Cl)c2)n1,"inconclusive [inhibitor, full curve, poor fit]",
C=CCn1c(SCc2ccc(C#N)cc2)nnc1-c1cccc(OC)c1,,inactive: -5.07%
COc1cc(C(=O)c2ccccc2)c(OC)cc1C(=O)Nc1ccc(O)cc1,"inconclusive [inhibitor, single point]",
CCOC(=O)c1c(NC(=O)Cn2cnc([N+](=O)[O-])n2)sc2c1CCCC2,"inconclusive [inhibitor, full curve, poor fit]",
CCCC1CC(CSc2ncn[nH]2)OC1=O (stereo unspecified),"inconclusive [inhibitor, partial curve]",
CC(=O)CC(C)(C)S(=O)(=O)c1ccc(NC(C)=O)cc1,"inconclusive [inhibitor, partial curve, poor fit]",
O=C(CN(Cc1ccc(F)cc1)C(=O)c1csnn1)NCc1ccccc1,"inconclusive [inhibitor, full curve, poor fit]",
Cc1ccc(S(=O)(=O)/C(=C/Cl)NC(=O)c2ccccc2)cc1,"inconclusive [inhibitor, partial curve, poor fit]",
Nc1nc(SCC(=O)Nc2c(Br)cc([N+](=O)[O-])cc2Br)n[nH]1,"inconclusive [inhibitor, single point]",
CC(C)CSC1=NSC2=NC(=O)/C(=C\c3cccs3)C(=N)N12,"inconclusive [inhibitor, full curve, poor fit]",
Cc1c(NC(=O)c2ccccc2)cc(C(C)C)c(O)c1S(=O)(=O)c1ccc(Cl)cc1,,inactive: -4.04%
O=C(CCCN1C(=O)NC2(CCCC2)C1=O)Nc1ccc(Cl)c(S(=O)(=O)N2CCOCC2)c1,"inconclusive [inhibitor, full curve, poor fit]",
CCC1Sc2ccccc2N(CC(=O)NC2CC2)C1=O (stereo unspecified),"inconclusive [inhibitor, single point]",
CC(=O)NC1=C(N(C)C2CCS(=O)(=O)C2)C(=O)c2ccccc2C1=O (stereo unspecified),"inconclusive [inhibitor, single point]",
CCCc1cc(O)c2c(C)cc(=O)oc2c1,"inconclusive [inhibitor, single point]",
Cc1ccccc1NC(=S)N1CCN(c2ccccc2C)CC1,"inconclusive [inhibitor, full curve, poor fit]",
CCc1c(C)nc2ccc(Br)cc2c1SCCC#N,"inconclusive [inhibitor, full curve, poor fit]",
Cc1ccc(NC(=O)CSc2ccc(C(N)=O)cc2[N+](=O)[O-])cc1,,inactive: 3.67%
COc1ccc(NC(=O)c2cccc(NC(=O)C(C)C)c2)c([N+](=O)[O-])c1,,inactive: -1.03%
CSc1ccccc1NC(=O)Nc1cccc(F)c1,,inactive: 8.15%
Cc1cccc(N(CC(=O)NC2CCCCC2)C(=O)CCCC(=O)Nc2ccccn2)c1C,"inconclusive [inhibitor, partial curve]",
